Source: PubChem BioAssay AID488969 (Vanderbilt High Throughput Screening Facility, 2010)
Over roughly 110,000 compounds, “z-score” has its median near -0.1; the highest 2% begin near 2. The list shows a part of the results.

Each compound was assayed against Metabotropic glutamate receptor 8 (Rattus norvegicus) (UniProt P70579) (assay: mGluR8 Gi/Go-coupled signaling modulation – cell-based, rat, thallium flux, HTS, primary screen (AID 488969)). Settings: HEK293 rat mGluR8, GIRK (G protein-gated inwardly rectifying potassium channel) thallium flux, FluoZin2; at 10 µM; stronger effect = higher value; submaximal glutamate (EC20) added with thallium.
UniProt P70579, sequence (P70579 whole entry, looked up): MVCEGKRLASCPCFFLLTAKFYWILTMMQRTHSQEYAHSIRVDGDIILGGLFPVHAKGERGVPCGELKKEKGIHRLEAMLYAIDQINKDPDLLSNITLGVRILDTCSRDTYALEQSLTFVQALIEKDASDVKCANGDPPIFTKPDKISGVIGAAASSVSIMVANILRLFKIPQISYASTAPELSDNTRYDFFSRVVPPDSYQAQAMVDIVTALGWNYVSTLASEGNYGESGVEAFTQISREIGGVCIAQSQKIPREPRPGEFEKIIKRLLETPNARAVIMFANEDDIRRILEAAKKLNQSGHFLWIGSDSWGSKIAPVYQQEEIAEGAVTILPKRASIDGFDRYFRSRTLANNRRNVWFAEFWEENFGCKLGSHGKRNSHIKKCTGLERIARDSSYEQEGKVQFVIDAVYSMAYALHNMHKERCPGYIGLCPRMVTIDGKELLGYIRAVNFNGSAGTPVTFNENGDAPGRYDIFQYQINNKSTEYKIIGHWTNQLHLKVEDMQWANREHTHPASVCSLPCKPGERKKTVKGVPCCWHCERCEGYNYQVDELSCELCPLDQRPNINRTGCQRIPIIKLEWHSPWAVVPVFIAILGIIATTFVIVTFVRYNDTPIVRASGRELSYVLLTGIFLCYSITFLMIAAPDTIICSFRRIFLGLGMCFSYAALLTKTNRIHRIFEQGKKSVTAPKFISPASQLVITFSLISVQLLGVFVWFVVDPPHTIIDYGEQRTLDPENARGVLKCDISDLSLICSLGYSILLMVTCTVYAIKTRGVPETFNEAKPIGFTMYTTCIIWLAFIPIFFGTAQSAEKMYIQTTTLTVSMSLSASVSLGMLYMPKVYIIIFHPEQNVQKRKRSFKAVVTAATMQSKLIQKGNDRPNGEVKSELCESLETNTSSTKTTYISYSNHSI
CNc1nc2c(C)cccn2c(=O)c1C=NCc1ccccc1 gave a z-score of -0.335.
For O=C(CCN1CCN(c2ccccc2)CC1)Nc1ccc(Cl)cc1, the z-score was 1.77.
Compound CC(C)(C)OC(=O)NCCc1nnc(SCC(=O)c2ccc(Cl)cc2)o1 has a z-score of -0.0633.
With Cc1c(NS(=O)(=O)c2cccc(C(=O)NCc3ccccc3)c2)c(=O)n(-c2ccccc2)n1C the z-score was 0.778.
In the case of Cc1ccc(N2C(=O)C3C4C=CC(CNC(=S)Nc5ccc(F)cc5)(O4)C3C2=O)cc1 (centres undefined), the z-score is reported as -0.0676.
For COc1cc(C(=S)N2CCCC2)ccc1OC(=O)c1ccc(Cl)cc1[N+](=O)[O-], the z-score was -0.375.
Work on CC1Cc2ccccc2N1C(=O)c1ccnc(C(C)(C)C)c1 (centres undefined) yielded a z-score of 0.419.
For CC(C)Nc1nnc(SCC(=O)c2c[nH]c3ccccc23)s1, the z-score was -0.322.
With CCN(CC)c1ccc(NC(=O)CC2Oc3ccccc3NC2=O)c(C)c1 (centres undefined) the z-score was 0.762.
COc1ccc(-c2c(C(C)=O)c(C)nc3sc4c(c23)NC(c2ccccc2)NC4=O)cc1 (centres undefined) gave a z-score of 0.104.
Work on Cc1c(Cl)cnc(NC(=O)COC(=O)c2cccc(S(=O)(=O)N3c4ccccc4CC3C)c2)c1Cl (centres undefined) yielded a z-score of -0.169.
With COc1ccc(NC(=O)/C(Cl)=C(/Cl)S(=O)Cc2ccccc2)cn1 (centres undefined) the z-score was -0.92.
CCOc1nc(NCCC2=CCCCC2)nc(N2CCOCC2)n1 was tested, and the z-score was 0.212.
c1ccc(CCn2c3ccccc3c3nnc(SCc4ccc5nonc5c4)nc32)cc1 gave a z-score of -0.0123.
Compound Cc1nn(-c2ccccc2)c(Cl)c1/C=N/NC(=O)C1COc2ccccc2O1 (centres undefined) has a z-score of -0.169.
For COCCNc1nc(CSc2ccccc2)nc2sc(C)c(C)c12, the z-score was 0.592.
COc1ccc(NC(=O)CCCN2C(=O)CCC2=O)cc1Cl was tested, and the z-score was 0.138.
Compound CC(C)C12CN3CC(C(C)C)(CN(C1)C3c1ccc3c(c1)OCO3)C2=O (centres undefined) has a z-score of -0.124.
For COc1ccccc1NC(=S)NC(=O)C(C)C, the z-score was 0.0391.
Cc1ccc(C2NC(=O)c3c(sc(C)c3C)N2)c(O)c1 (centres undefined) showed a z-score of -0.278.
Compound Cc1cc(=O)oc(C)c1C(=O)NCCNC(=O)c1c(C)cc(=O)oc1C has a z-score of -0.13.
With CCCCC(=O)N/N=C/c1sccc1C the z-score was -0.294.
COc1cc(/C=N/Nc2nc3ccccc3[nH]2)ccc1O was tested, and the z-score was -0.253.
Work on Cc1c(C(=O)Nc2ccc(Cl)cc2)c2ccccn2c1C(=O)c1ccccc1 yielded a z-score of 0.641.
For O=C(Nc1nnc(SCC(=O)N2CCOCC2)s1)c1ccccc1Cl, the z-score was -0.28.
O=C(Nc1ccccc1-c1ccccc1)c1ccc(Br)o1 gave a z-score of -0.753.
Work on O=C(N/N=C/c1cccnc1)C1CCCN(S(=O)(=O)c2ccccc2)C1 (centres undefined) yielded a z-score of 0.0205.
Work on COc1cc(C(c2c(C)[nH][nH]c2=O)c2c(C)[nH][nH]c2=O)ccc1OS(=O)(=O)c1ccccc1 yielded a z-score of 0.0965.
In the case of O=C(CCC(=O)OCC(=O)c1ccccc1)Nc1cccc2cccnc12, the z-score is reported as -0.0155.
